Measurements from PubChem BioAssay AID686979 (National Center for Advancing Translational Sciences (NCATS), 2013).
Values joined by “and” are separate entries in the source; they are usually repeats but may differ in a detail not shown here. Identical values can stand only once. Hit rate of the full screen: of about 420,000 compounds, about 50,000 (12%) were called active. This list was built around the results that the source calls inconclusive (neither active nor inactive); the mix of calls is not that of the screen. Calls follow the shape of the dose curve; as a rule, active = well fitted inhibition curve with a large enough effect; inconclusive = small, poorly fitted or top-dose-only effect; inactive = flat fitted curve, though single readings scatter. Where the call is inconclusive, the potency comes from a doubtful curve fit. Where a structure was tested more than once in an assay, its records may differ in their call.

Assay: qHTS for Inhibitors of human tyrosyl-DNA phosphodiesterase 1 (TDP1): qHTS in cells in presence of CPT; also: nearly all actives have a fitted effect of over 55% in size
Settings: chicken DT40 Tdp1-/-;hTDP1 cells + 20 nM CPT, ATP luminescence, 48 h; activity change, negative = growth inhibition: at 46.2 µM (top of the series) unless noted
Summary of the method: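 Chicken DT40 Tdp1-/- cells complemented with human TDP1, 400 cells/well, exposed to compounds plus 20 nM camptothecin for at least 48 h at 37 C; viability read as ATP content by CellTiter-Glo luminescence.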
% is scaled to controls: 0 for no effect and ±100 for the full control effect; potency is read from the fitted curve at half-maximal effect; tags tell the direction and shape of the fitted curve.

| Structure (SMILES) | Potency | activity change, negative = growth inhibition |
| --- | --- | --- |
| Cc1cc(C(F)(F)F)c2c(N)c(C(=O)Nc3c(Cl)cccc3Cl)sc2n1 | inconclusive: 20.6 µM [inhibitor, single point] |  |
| O=C(NNC(=O)c1ccccc1Br)c1ccccc1Cl | inactive |  |
| CC(C)NCC(O)COc1ccc2c(c1)CCC2 (configuration not stated) | inactive |  |
| COc1ccc(OCC2c3cc(OC)c(OC)cc3CCN2C(=O)C(C)C)cc1 (configuration not stated) | inconclusive: 25.9 µM [inhibitor, single point] |  |
| CCN(CCNC(=O)C1CCCN(Cc2nc(-c3ccc(OC)cc3)oc2C)C1)c1ccccc1 (configuration not stated) | active: 16.4 µM |  |
| COc1ccccc1OCc1cc(C(=O)N2CC3C[C@@H]4CC2C[C@H](C3)C4)no1 | active: 11.6 µM |  |
| COc1cccc(NC(=O)Nc2nnc([C@H]3C[C@H](O)[C@@H](CO)O3)s2)c1 | inconclusive: 32.6 µM [inhibitor, partial curve, poor fit] |  |
| C(=C\c1cccs1)/c1ccccn1 | inactive |  |
| Cc1ccc(-n2nc3c(=O)n(CCCC(=O)NCc4ccc(F)cc4)nc(C)c3c2C)cc1 | inconclusive: 29.1 µM [inhibitor, single point] and inconclusive: 13 µM [inhibitor, partial curve] |  |
| Cc1cc(C)c(S(=O)(=O)NCC(c2ccco2)N2CCN(c3ccccc3)CC2)c(C)c1 (configuration not stated) | active: 23.1 µM |  |
| CCOc1ccccc1C(=O)NCC(=O)N1CCN(Cc2ccc3c(c2)OCO3)CC1 | active: 29.1 µM |  |
| O=S1(=O)CCOC[C@H](Cc2ccccc2)N1Cc1ccc(Cl)cc1 | inconclusive: 29.1 µM [inhibitor, single point] |  |
| CCn1ccnc1CN(C)Cc1cn(-c2cc(C)ccc2C)nc1-c1ccccc1 | inconclusive: 25.9 µM [inhibitor, single point] |  |
| COc1ccccc1NS(=O)(=O)c1cc(NC(=O)Nc2ccccc2)ccc1N1CCCCC1 | active: 18.4 µM |  |
| CN(C)c1ccc(NC(=O)Nc2ccc3c(c2)c(=O)n(C)n3Cc2ccc(Cl)cc2)cc1 | inconclusive: 18.4 µM [inhibitor, single point] |  |
| COc1ccc(C)cc1S(=O)(=O)N1CCCC(C(=O)N2CCN(c3ccccc3F)CC2)C1 (configuration not stated) | inconclusive: 29.1 µM [inhibitor, single point] |  |
| CC1CCCCN1S(=O)(=O)c1ccc2[nH]c(=O)cc(C(=O)NCCc3ccc(Cl)cc3)c2c1 (configuration not stated) | inconclusive: 18.4 µM [inhibitor, single point] |  |
| Cc1n[nH]c(C)c1CCCCOc1ccccc1 | inconclusive: 29.1 µM [inhibitor, single point] |  |
| COc1ccc(S(=O)(=O)NCc2ccccn2)cc1NC(=O)c1ccccc1 | active: 4.61 µM |  |
| CCN1CCc2nc(SCC(=O)Nc3ccc(OC)cc3)c(C#N)cc2C1 | inconclusive: 32.6 µM [inhibitor, single point] |  |
| COC(=O)c1c(NC(=O)c2c(OC)cccc2OC)sc2c1CCCC2 | inconclusive: 29.1 µM [inhibitor, single point] |  |

| Structure (SMILES) | Potency | activity change, negative = growth inhibition |
| --- | --- | --- |
| CC(C(=O)N1CCCCC1)N(C)CC(=O)Nc1ccc(Cl)cc1 (configuration not stated) | inconclusive: 20.6 µM [inhibitor, single point] |  |
| Cc1cccc(N=C2Sc3nc4c(C)c(C)ccc4cc3CN2CCN2CCOCC2)c1 | active: 18.4 µM |  |
| COC(=O)CCNC(=O)c1ccc2nc(Cc3ccc(OC)c(OC)c3)oc2c1 | inconclusive: 14.6 µM [inhibitor, single point] |  |
| Cc1ccc(S(=O)(=O)N2CCC(=O)N(CCOCc3cccc(C)c3)CC2)cc1 | active: 10.3 µM |  |
| Cc1ccc(CNC(=O)C2CCCN(S(=O)(=O)c3c(C)n[nH]c3C)C2)cc1 (configuration not stated) | inconclusive: 1.3 µM [inhibitor, partial curve, poor fit] |  |
| CSCC[C@H](NC(=O)[C@@H]1CSC2c3ccccc3C(=O)N21)C(=O)NCc1ccco1 (some centres not stated) | inactive |  |
| CN(C)c1ccc(CNC(=O)CCc2ccc(S(=O)(=O)N3CCCCCC3)cc2)cc1 | inconclusive: 20.6 µM [inhibitor, single point] |  |
| Cc1cccc(N(Cc2cc3ccccc3[nH]c2=O)C(=O)c2ccco2)c1C | active: 25.9 µM |  |
| Clc1ccc(COc2cccc(CNCc3ccncc3)c2)cc1 | inconclusive: 23.1 µM [inhibitor, single point] |  |
| C=C(C)CNC(=S)N/N=C(\C)c1ccc(-n2ccnc2)cc1 | inconclusive: 29.1 µM [inhibitor, single point] |  |
| COc1ccc(C(=O)N/C(=C\c2cn(C)c3ccccc23)C(=O)N2CCN(C)CC2)cc1 | inactive |  |
| COc1cccc(NC(=O)c2oc3ccc(S(=O)(=O)N4CCOCC4)cc3c2C)c1 | active: 14.6 µM |  |
| CC(=O)c1cccc(Nc2ncnc3c2cnn3-c2cccc(Cl)c2)c1 | inconclusive: 29.1 µM [inhibitor, single point] |  |
| C=Cc1ccc(Cn2c(C(=O)OC)cc3sc(C)cc32)cc1 | inactive |  |
| CN1CCc2c(sc(NC(=O)c3ccc(S(=O)(=O)N4CCCC4)cc3)c2C(N)=O)C1 | inconclusive: 25.9 µM [inhibitor, single point] |  |
| COCCn1c(SCC(=O)N2CCc3ccccc3C2)nc2ccccc2c1=O | active: 20.6 µM |  |
| CC(C)(C)OC(=O)C[C@H]1C/C=C\C[C@@H](CC(=O)N(CCO)Cc2ccccc2)C(=O)N[C@@H](c2ccccc2)COC1=O | inconclusive: 14.6 µM [inhibitor, partial curve, poor fit] |  |
| CC(=O)Nc1c(C(=O)Nc2ccccc2F)oc2ccccc12 | inactive |  |
| C#CCN(C[C@@H]1[C@@H](OC(=O)NCCCCCC)[C@@H](OC(=O)NCCCCCC)Cn2c(=O)n(CCCCCC)c(=O)n21)S(=O)(=O)c1ccc(C)cc1 | inconclusive: 29.1 µM [inhibitor, single point] |  |
| O=C(Nc1sc2c(c1C(=O)NC1CC1)CCCCCC2)c1ccco1 |  | inconclusive: -30% [inhibitor] |
| Cc1ccc(S(=O)(=O)N2C[C@H]3N(C(=O)OC(C)C)N(C(=O)OC(C)C)C[C@H](OC(=O)NCc4ccco4)[C@@]3(O)C2)cc1 | inconclusive: 16.4 µM [inhibitor, single point] |  |
